# From PubChem BioAssay AID488969 (Vanderbilt High Throughput Screening Facility, 2010)
# In all, about 110,000 compounds were measured (“z-score”: median about -0.1, highest 2% from about 2 on). This is one part of the list. Active and inactive are the calls of the source.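 The calls were made as follows: active = z-score in the third read window above 3 or below -3; inactive = the rest.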
# Biological target: Metabotropic glutamate receptor 8 (Rattus norvegicus) (UniProt P70579)
# Test: rat mGluR8 modulators via GIRK flux, primary screen, cell-based, thallium flux, HTS (AID 488969)
# Conditions: HEK293 rat mGluR8, GIRK (G protein-gated inwardly rectifying potassium channel) thallium flux, FluoZin2; at 10 µM; stronger effect = higher value; submaximal glutamate (EC20) added with thallium
# Sequence of UniProt P70579 (P70579 whole entry, looked up): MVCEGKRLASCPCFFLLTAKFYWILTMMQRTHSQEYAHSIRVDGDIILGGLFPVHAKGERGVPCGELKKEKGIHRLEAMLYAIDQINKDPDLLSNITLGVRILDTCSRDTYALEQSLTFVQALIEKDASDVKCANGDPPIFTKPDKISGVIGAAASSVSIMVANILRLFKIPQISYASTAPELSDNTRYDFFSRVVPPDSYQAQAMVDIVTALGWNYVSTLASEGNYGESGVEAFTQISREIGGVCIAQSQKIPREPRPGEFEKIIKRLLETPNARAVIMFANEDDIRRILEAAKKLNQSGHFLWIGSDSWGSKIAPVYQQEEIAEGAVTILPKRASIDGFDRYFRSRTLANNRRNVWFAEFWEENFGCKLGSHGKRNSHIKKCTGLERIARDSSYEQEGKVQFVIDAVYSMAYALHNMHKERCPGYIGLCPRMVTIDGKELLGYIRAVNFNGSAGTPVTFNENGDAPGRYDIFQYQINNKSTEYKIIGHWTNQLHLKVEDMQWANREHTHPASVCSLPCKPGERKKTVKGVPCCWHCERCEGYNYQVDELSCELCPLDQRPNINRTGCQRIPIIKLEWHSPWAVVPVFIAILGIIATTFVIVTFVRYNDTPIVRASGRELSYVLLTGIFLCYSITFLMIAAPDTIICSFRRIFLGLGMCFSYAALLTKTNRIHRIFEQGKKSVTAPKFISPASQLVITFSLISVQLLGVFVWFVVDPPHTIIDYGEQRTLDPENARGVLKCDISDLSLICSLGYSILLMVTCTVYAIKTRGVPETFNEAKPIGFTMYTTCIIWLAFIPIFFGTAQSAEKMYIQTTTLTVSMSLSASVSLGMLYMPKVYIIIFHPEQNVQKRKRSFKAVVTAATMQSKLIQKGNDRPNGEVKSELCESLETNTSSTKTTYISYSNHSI
row,SMILES,z-score
1,Cc1ccc(NC(=O)CSc2nnc(CCNC(=O)OC(C)(C)C)o2)c(C)c1,2.11
2,CCc1ccc2[nH]c(=O)c(CN(Cc3ccccc3)Cc3nnnn3Cc3ccco3)cc2c1,1.78
3,Cc1ccc(S(=O)(=O)Nc2cc(C(F)(F)F)ccc2N2CCOCC2)cc1,0.266
4,c1ccc2c(c1)OC(CCCN1CCCCC1)c1ccccc1S2 (stereo not given),0.834
5,CN(Cc1nc2ccccc2c(=O)[nH]1)c1ccccc1,-0.0308
6,COc1ccc(NC(=O)C23CC4CC(C2)CC(n2cnc(Br)n2)(C4)C3)c(OC)c1,-0.191
7,COCc1n[nH]c(=S)n1-c1ccccc1,0.288
8,CCOc1ccc(C(=O)NC(C(=O)NCc2ccccn2)C(C)C)cc1 (stereo not given),0.598
9,COc1cc(C2CC(=O)c3c(ccc4ccccc34)N2)ccc1O (stereo not given),0.11
10,COc1cc(C2CC(=O)Nc3cc(C)c(C)cc32)cc(OC)c1OC (stereo not given),-0.107
11,COc1ccc(-c2nn3c(-c4ccco4)nnc3s2)cc1OC,-0.544
12,O=C(c1cc(-c2ccncc2)nc2ccc(Cl)cc12)N1CCN(C(=O)C2CCCO2)CC1 (stereo not given),-0.0919
13,Cc1cc(C)nc(-n2nc(C)c3c(=O)[nH]c(C(F)(F)F)nc32)n1,0.253
14,CC(=O)c1cccc(NC(=O)Nc2ccc(C(=O)N3CCCC3)cc2)c1,-0.503
15,CCCN(C(=S)Nc1ccccc1)C1CCS(=O)(=O)C1 (stereo not given),-0.365
16,CCOc1ccc2nc(Nc3nc4ccc(NC(C)=O)cc4s3)sc2c1,-0.222
17,COc1ccc2cc(C#N)c(SCC(=O)N3CCCC3)nc2c1,0.12
18,CCNc1ccc(C(=O)OCC(=O)NCc2ccccc2Cl)cc1[N+](=O)[O-],-0.612
19,Cc1ccc(NC(=O)CCC(=O)NNC(=O)COc2ccccc2)c(C)c1,-0.385
20,CCCCNc1c([N+](=O)[O-])cc(C(=O)O)cc1[N+](=O)[O-],-0.18
21,O=c1[nH]c(N2CCN(c3ccccc3)CC2)nc2c1CCCC2,-0.323
22,Cc1cccc2cc(CN(Cc3ccc(F)cc3)C(=O)C(F)(F)F)c3nnnn3c12,-0.681
23,O=C(O)c1ccc(-n2nc(C(F)(F)F)c3c2-c2ccoc2CC3)cc1,-0.736
24,CCS(=O)(=O)N1CCN(C(=O)c2cccnc2)CC1,-0.101
25,COc1ccccc1NS(=O)(=O)c1cccs1,-0.598
26,Cc1ccccc1N1OC2C(=O)N(c3ccc(F)cc3)C(=O)C2C1c1ccccn1 (stereo not given),0.411
27,O=C(OCc1nnc(-c2ccccc2)o1)C1=COCCO1,-0.205
28,C/C(N)=C(/C#N)C(=O)COC(=O)c1cc(S(=O)(=O)N2CCCCC2)ccc1C,-0.368

row,SMILES,z-score
1,CCOc1ccc(C2C(C(=O)OC)=C(C)N=C3SCCC(=O)N32)cc1OCC (stereo not given),1.75
2,COC(=O)Nc1sc2c(c1C(=O)NCc1ccco1)CCC2,-0.656
3,Cc1nn(C)c(C(=O)Nc2ccc(S(=O)(=O)NC34CC5CC(CC(C5)C3)C4)cc2)c1Br,-0.0632
4,Cc1ccc(-c2cc(NC(=O)CSc3n[nH]c(N)n3)n(-c3ccccc3)n2)cc1,0.0109
5,Cc1ccc(NC(=O)Cn2cnc3c(cnn3C(C)(C)C)c2=O)cc1,-0.496
6,Cc1ccc(C2C3=C(NCCN=C3c3ccccc3)C(=O)N2c2ccccc2)cc1 (stereo not given),active: 3.18
7,C=C(C)c1cccc(C(C)(C)NC(=O)N2CCN(CC(N)=O)CC2)c1,-0.369
8,CC(C)c1cc(NC(=O)C(C)(C)C)cc(C(C)C)c1O,0.939
9,CCCCOc1ccc(C(C)NC(=O)C2CCCN(S(=O)(=O)CC)C2)cc1 (stereo not given),0.227
10,CN1CCN(C(=O)c2ccc(N3CCCC3=O)cc2)CC1,-0.0924
11,CCOc1ccc(CCNC(=O)c2cccc(N3CCCC3=O)c2)cc1OCC,-0.162
12,Cc1cccc(NC(=O)c2c(C)cc(=O)oc2C)n1,0.0459
13,CCn1c(Cc2ccccc2)nnc1SCc1nc2ccccc2c(=O)[nH]1,0.0899
14,CCCCN1C(=O)NC(NC(C)=O)(C(F)(F)F)C1=O (stereo not given),0.244
15,CCOc1cc(C2C3=C(CCCC3=O)N(CCC(=O)O)C3=C2C(=O)CCC3)ccc1OS(=O)(=O)c1ccc(C)cc1,0.309
16,O=C(CSc1nccc(=O)[nH]1)c1ccccc1Br,-0.161
17,CCOC(=O)c1c(-c2ccccc2)nc2c(C)cccn12,-0.595
18,CCc1cc(-c2n[nH]c(=S)n2CC)cs1,-0.194
19,COc1ccc(C2C3=C(CCCC3=O)Nc3nc4ccccc4n32)cc1OC (stereo not given),0.173
20,COc1cc2[nH]cc(C(=O)NCc3cccs3)c(=O)c2cc1OC,-0.0461
21,CCOC(=O)N1CCN(C(=O)CN(Cc2ccc(Cl)cc2)S(=O)(=O)c2ccc(C)cc2)CC1,-0.153
22,COC(=O)c1ccc(CN2C(=O)NC3(CCCc4ccccc43)C2=O)o1 (stereo not given),0.00631
23,O=c1cc(C(F)(F)F)nc(-n2[nH]c3c(c2=O)CCCC3)[nH]1,-1.1
24,O=c1ccccn1Cc1c(Cl)cccc1Cl,-0.055
25,Cc1ccc(SCc2nc(N)nc(Nc3ccccc3C)n2)cc1C,0.0403
26,Nc1nc(SCC(=O)N2CCCc3ccccc32)[nH]c(=O)c1-c1ccccc1,-0.51
27,COc1ccc(C(=O)Nn2c(SCC(=O)NC3CCCCC3)nc3ccccc3c2=O)cc1,-0.335
